Assay results reported in PubChem BioAssay AID1508642 (National Center for Advancing Translational Sciences (NCATS), 2021).
Out of some 43,000 compounds screened, about 200 (0.47%) were called active. Inconclusive results (about 12%) are left out. The call rests on the fitted dose curve; in most records, active means well fitted cell-killing curve with a large enough effect; inconclusive means small, poorly fitted or top-dose-only effect, or effect the other way; inactive means flat fitted curve, though single readings scatter. Some of the results follow.

Assay: Cell viability qHTS assay in S16 Pmp22-F2sN cells; further: nearly all actives have a fitted effect of over 65% in size
Details: S16 Pmp22-F2sN Schwann cells (luciferase reporters placed in the Pmp22 gene) viability, CellTiter-Glo, 24 h; series mostly up to 57.5 µM; activity change, negative = cytotoxicity: at the top concentration
Method in brief: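 Luminescence from CellTiter-Glo, read by CCD camera after a 15 min room-temperature incubation, served as the viability signal. Reporter Schwann cells (S16 Pmp22-F2sN) had been treated with pin-transferred compounds for 24 h at 37C.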
On the % scale 0 is the no-effect control and ±100 the full control effect.

Row | SMILES | activity change, negative = cytotoxicity
1 | Cc1ccccc1CNC(=O)c1nn(-c2ccccc2F)nc1CO | inactive: 0.85%
2 | O=c1c2sccc2n(Cc2cc(=O)n3ccccc3n2)c(=O)n1-c1cc(F)ccc1F | inactive: 1.9%
3 | CCn1nc(-c2ccccc2)c(-c2ccccc2)c(C(=O)Nc2ccc(S(N)(=O)=O)cc2)c1=O | inactive: 19.2%
4 | COc1ccc(C(=O)Nc2ccc(-c3nnc4n3CCCCC4)cc2)cc1 | inactive: 20.3%
5 | COc1cccc2c1Oc1ncccc1N(C(=O)CCC(=O)NCCC(C)C)C2 | inactive: -0.721%
6 | CCc1cccc(C)c1NC(=O)Cn1c(=O)n(-c2ccc(C)cc2)c(=O)c2c1cnn2C | inactive: 13.5%
7 | COc1ccc(CCn2c(=O)c3cccnc3n(CC(=O)Nc3c(C)cccc3C)c2=O)cc1OC | inactive: -0.696%
8 | O=S(=O)(c1ccc(Cl)cc1)c1nc(-c2cccc(Br)c2)oc1NCc1ccccc1 | inactive: 3.99%
9 | Cc1cccc(CCNC(=O)c2ccc3c(c2)nc2n3CCC(C)C2)c1 (stereo not given) | inactive: 13.4%
10 | COc1ccc(OC)c(NC(=O)c2ccc3c(SCC(=O)O)c4c(nc3c2)CCCC4)c1 | inactive: 0.538%
11 | Cc1ccc2nc(COc3ccccc3NC(=O)c3ccccc3C)cc(=O)n2c1 | inactive: 6.44%
12 | COc1ccc(-c2nnc(SCC(=O)Nc3cc(OC)ccc3OC)nc2-c2ccc(OC)cc2)cc1 | inactive: -0.739%
13 | COc1cccc(-c2ccc(-c3noc(-c4ccccc4Br)n3)c(OC)n2)c1 | inactive: 15.6%
14 | CCC(=O)N1c2ccccc2CC1C(=O)NCc1cccc(OC)c1OC (stereo not given) | inactive: 18%
15 | Cc1cccc(-c2noc(-c3ccc(NCc4ccco4)c([N+](=O)[O-])c3)n2)c1 | inactive: 21.2%
16 | O=C(c1ccco1)N1CCN(c2nc3c(F)cc(F)cc3s2)CC1 | inactive: -10.5%
17 | Cc1ccn2c(=O)cc(COc3ccc(NC(=O)COc4ccccc4)cc3)nc2c1 | inactive: 11%
18 | Cc1ccc(S(=O)(=O)N2CCN(Cc3cc(Br)ccc3O)CC2)cc1 | inactive: -23.4%
19 | CCC(=O)N1CCc2cc(Br)cc(S(=O)(=O)N3CCCC(C(=O)NCc4ccc(F)cc4)C3)c21 (stereo not given) | inactive: 13.8%
20 | Cn1cc(S(=O)(=O)N2CCCCCC2)cc1C(=O)N1CCN(c2cccc(C(F)(F)F)c2)CC1 | inactive: 4.25%

Row | SMILES | activity change, negative = cytotoxicity
21 | CCOc1ccc(CCNC(=O)C2CCN(Cc3nc(-c4ccc(OC)c(OC)c4)oc3C)CC2)cc1OCC | inactive: 11.9%
22 | COc1cc(-c2nc(-c3ccc4c(c3)[nH]c(=O)n4C)no2)cc(OC)c1OC | inactive: 18.8%
23 | CCOc1ccccc1NC(=O)C1CCN(S(=O)(=O)c2ccc3[nH]c(=O)ccc3c2)CC1 | inactive: 8.76%
24 | O=C1CSC2(C(=O)N(Cc3ccccc3)c3ccccc32)N1c1cccc(F)c1 (stereo not given) | inactive: -2.08%
25 | CCc1ccc(NC(=O)COC(=O)CCCC2=NS(=O)(=O)c3ccccc3N2)cc1 | inactive: 0.223%
26 | N#Cc1ccccc1NC(=O)C(=O)NCCc1csc(-c2ccc(C(F)(F)F)cc2)n1 | inactive: 3.14%
27 | COc1cccc(CNC(=O)CCCn2ncn3c(cc4occc43)c2=O)c1OC | inactive: 7.92%
28 | CCSc1ncc(Cl)c(C(=O)Nc2ccc(S(=O)(=O)Nc3ncccn3)cc2)n1 | inactive: -0.198%
29 | Cc1cccc(C(=O)Nc2nc3nc(-c4ccccc4)cc(=O)n3[nH]2)c1 | inactive: -0.21%
30 | CCC1CN(C(=O)NCc2ccccc2)c2cc(Cl)ccc2O1 (stereo not given) | inactive: -21.2%
31 | O=C(Nc1cccc(OCc2cc(=O)n3ccccc3n2)c1)c1ccccc1Br | inactive: -0.309%
32 | CCN(CC)c1cc(C)c2cc(NC(=O)c3ccccc3Cl)ccc2n1 | inactive: -26.5%
33 | CCOC(=O)c1ccc(NC(=O)CSc2ccc(-c3ccccn3)nn2)cc1 | inactive: -20.1%
34 | COc1ccc(S(=O)(=O)NCCc2nnc3ccc(SCC(=O)Nc4cc(C)cc(C)c4)nn23)cc1 | inactive: -20.7%
35 | CC(C)(C)OC(=O)N1CCC(c2c(C(=O)Nc3ccc4c(c3)OCCO4)cnn2-c2ccc(F)cc2F)CC1 | inactive: 1.24%
36 | COc1ccc(N2CC(NC(=O)COc3ccc(F)cc3)CC2=O)cc1OC (stereo not given) | inactive: -1.75%
37 | CCOC(=O)C(=O)NCC(c1cccnc1)N1CCN(c2ccccc2)CC1 (stereo not given) | inactive: -1.41%
38 | CCOC(=O)CC(NC(=O)c1cc2cc(Br)cc(OC)c2oc1=O)c1ccc(OC)cc1 (stereo not given) | inactive: -0.527%
39 | O=C(NCc1ccc2c(c1)CCN2C(=O)c1ccncc1)c1ccccc1Cl | inactive: 1%
40 | Cn1c2ccccc2c2c(C(=O)N3CCN(c4cccc(Cl)c4)CC3)cn(C3CCCCC3)c(=O)c21 | inactive: 1.44%

Row | SMILES | activity change, negative = cytotoxicity
41 | Cn1c(=O)c2c(nc(CN3CCN(c4ccccc4F)CC3)n2Cc2ccccc2F)n(C)c1=O | inactive: -6.12%
42 | COc1ccc(OC)c(CCNC(=O)c2cc3cccc4c3n2CC(C)S4)c1 (stereo not given) | inactive: -6.46%
43 | COc1ccccc1CCNC(=O)C(=O)NCC(c1ccco1)S(=O)(=O)c1ccc(F)cc1 (stereo not given) | inactive: -8.51%
44 | COc1cccc(N2CCN(C(=O)C3CCCN(S(=O)(=O)c4ccc5c(c4)oc(=O)n5C)C3)CC2)c1 (stereo not given) | inactive: -10.2%
45 | Cn1c(=O)n(C)c2cc(N3CCOCC3)c(NC(=O)c3ccc(Cl)cc3)cc21 | inactive: 3.05%
46 | CC1=C(C(=O)Nc2cc(Cl)ccc2C)C2(CCCCC2)OC1=O | inactive: 1.01%
47 | O=C(NCCc1csc(-c2ccc(F)cc2)n1)c1ccco1 | inactive: -5.04%
48 | Cc1cc(C)cc(NC(=O)CCc2nnc3n(C)c(=O)c4sccc4n23)c1 | inactive: 3.99%
49 | Cc1cc(C)n2nc(CNC(=O)c3ccccc3Cl)nc2n1 | inactive: -4.15%
50 | CCOc1ccc(CN2CCc3nc(N4CCN(c5ncccn5)CC4)ncc3C2)cc1OC | inactive: -5.95%
51 | COC(=O)C1=C(C)N=C2SCCC(=O)N2C1c1ccc(OCc2ccccc2)c(OC)c1 (stereo not given) | inactive: 14.9%
52 | CCOC(=O)c1c(C)[nH]c(C)c1S(=O)(=O)N(C)CC(=O)N1CCN(c2ccc(Cl)cc2)CC1 | inactive: 1.9%
53 | CCOc1ccc(N2C(=O)CS(=O)(=O)C23C(=O)N(Cc2cccc(Cl)c2)c2ccccc23)cc1 (stereo not given) | inactive: -3.25%
54 | CCOc1ccc(NC(=O)C2CCN(c3nc4ccccc4[nH]3)CC2)cc1 | inactive: 6.25%
55 | CCSc1ccc(C(=O)Nc2ccc(-c3nc4ccc(C)cc4s3)cc2)cc1 | inactive: -21.4%
56 | CCc1c(C)nc2nncn2c1Nc1ccc(Cl)cc1 | inactive: -1.89%
57 | COc1ccc(-n2c(=O)c3c4c(sc3n(Cc3ccc(C)cc3C)c2=O)CCC4)c(OC)c1 | inactive: -16.1%
58 | COc1cc(C(CC(=O)NCc2ccccc2)N2Cc3ccccc3C2=O)cc(OC)c1OC (stereo not given) | inactive: 1.4%
59 | CCC(C(=O)Nc1ccc(C(C)=O)cc1)n1cnc2nc3c(cc2c1=O)CCCC3 (stereo not given) | inactive: -5.64%
60 | COc1ccc(OC)c(CNC(=O)Cn2ncc3c([nH]c4ccc(C)cc43)c2=O)c1 | inactive: 10.4%
